# Measurements as given in the supplement of paper PMC8728848.
# This is one part of the list.
# Assays:
# Test in all cases: glycan array binding signal (z-score within array); higher = stronger binding
# Details in all cases: glycan notation: IUPAC condensed, linker removed
# [1] = biological target: Gal(b1-3)GlcNAc(b1-2)Man(a1-3)[Gal(b1-3)GlcNAc(b1-2)Man(a1-6)]Man(b1-4)GlcNAc(b1-4)GlcNAc
# In short: (§1)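 The Consortium for Functional Glycomics database supplied 3228 glycan arrays, of which those lacking an available protein sequence were dropped. The binding signal, a within-array Z-score, was averaged across arrays of the same protein sequence and across linkers. Negative scores can be read as non-binding.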
# [2] = biological target: Gal(b1-3)GlcNAc(b1-2)Man(a1-3)[Gal(b1-3)GlcNAc(b1-2)Man(a1-6)]Man(b1-4)GlcNAc(b1-4)[Fuc(a1-6)]GlcNAc
# In short: as §1
# [3] = biological target: Gal(b1-3)GlcNAc(b1-2)Man(a1-3)[GlcNAc(b1-4)][Gal(b1-3)GlcNAc(b1-2)Man(a1-6)]Man(b1-4)GlcNAc(b1-4)GlcNAc
# In short: as §1
# [4] = biological target: Gal(b1-3)GlcNAc(b1-2)[Gal(b1-3)GlcNAc(b1-6)]Man(a1-6)[Gal(b1-3)GlcNAc(b1-2)Man(a1-3)]Man(b1-4)GlcNAc(b1-4)GlcNAc
# In short: as §1
# [5] = biological target: Gal(b1-3)GlcNAc(b1-3)Gal(b1-3)GlcNAc
# In short: as §1
# [6] = biological target: Gal(b1-3)GlcNAc(b1-3)Gal(b1-4)Glc
# In short: as §1
# [7] = biological target: Gal(b1-3)GlcNAc(b1-3)Gal(b1-4)GlcNAc
# In short: as §1
# [8] = biological target: Gal(b1-3)GlcNAc(b1-3)Gal(b1-4)GlcNAc(b1-2)Man(a1-3)[Gal(b1-3)GlcNAc(b1-3)Gal(b1-4)GlcNAc(b1-2)Man(a1-6)]Man(b1-4)GlcNAc(b1-4)GlcNAc
# In short: as §1
# [9] = biological target: Gal(b1-3)GlcNAc(b1-3)Gal(b1-4)GlcNAc(b1-2)[Gal(b1-3)GlcNAc(b1-3)Gal(b1-4)GlcNAc(b1-6)]Man(a1-6)[Gal(b1-3)GlcNAc(b1-3)Gal(b1-4)GlcNAc(b1-2)Man(a1-3)]Man(b1-4)GlcNAc(b1-4)[Fuc(a1-6)]GlcNAc
# In short: as §1
# [10] = biological target: Gal(b1-3)GlcNAc(b1-3)Gal(b1-4)GlcNAc(b1-3)Gal(b1-4)GlcNAc(b1-2)[Gal(b1-3)GlcNAc(b1-3)Gal(b1-4)GlcNAc(b1-3)Gal(b1-4)GlcNAc(b1-6)]Man(a1-6)[Gal(b1-3)GlcNAc(b1-3)Gal(b1-4)GlcNAc(b1-3)Gal(b1-4)GlcNAc(b1-2)Man(a1-3)]Man(b1-4)GlcNAc(b1-4)[Fuc(a1-6)]GlcNAc
# In short: as §1
# [11] = biological target: Gal(b1-3)GlcNAc(b1-3)Gal(b1-4)GlcNAc(b1-6)[Gal(b1-3)GlcNAc(b1-3)]Gal(b1-4)Glc
# In short: as §1
# [12] = biological target: Gal(b1-3)GlcNAc(b1-3)Gal(b1-4)[Fuc(a1-3)]GlcNAc
# In short: as §1
# [13] = biological target: Gal(b1-3)GlcNAc(b1-3)Gal(b1-4)[Fuc(a1-3)]GlcNAc(b1-6)[Gal(b1-3)GlcNAc(b1-3)]Gal(b1-4)Glc
# In short: as §1
# [14] = biological target: Gal(b1-3)GlcNAc(b1-3)GalNAc
# In short: as §1
# [15] = biological target: Gal(b1-3)GlcNAc(b1-6)Gal(b1-4)GlcNAc
# In short: as §1
# [16] = biological target: Gal(b1-3)GlcNAc(b1-6)GalNAc
# In short: as §1
# [17] = biological target: Gal(b1-3)GlcNAc(b1-6)[Gal(b1-3)]GalNAc
# In short: as §1
# Gal(b1-3)GlcNAc6S = biological target: Gal(b1-3)GlcNAc6S
# In short: as §1
# [18] = biological target: Gal(b1-3)[Fuc(a1-4)]GlcNAc
# In short: as §1
# [19] = biological target: Gal(b1-3)[Fuc(a1-4)]GlcNAc(b1-2)Man
# In short: as §1
# [20] = biological target: Gal(b1-3)[Fuc(a1-4)]GlcNAc(b1-2)Man(a1-3)[Gal(b1-3)[Fuc(a1-4)]GlcNAc(b1-2)Man(a1-6)]Man(b1-4)GlcNAc(b1-4)[Fuc(a1-6)]GlcNAc
# In short: as §1
# [21] = biological target: Gal(b1-3)[Fuc(a1-4)]GlcNAc(b1-3)Gal(b1-3)[Fuc(a1-4)]GlcNAc
# In short: as §1
# [22] = biological target: Gal(b1-3)[Fuc(a1-4)]GlcNAc(b1-3)Gal(b1-4)[Fuc(a1-3)]GlcNAc
# In short: as §1
# [23] = biological target: Gal(b1-3)[Fuc(a1-4)]GlcNAc(b1-6)GalNAc
# In short: as §1
# [24] = biological target: Gal(b1-3)[GlcNAc(b1-6)]GalNAc
# In short: as §1
# [25] = biological target: Gal(b1-3)[Neu5Ac(a2-6)]GalNAc
# In short: as §1
# [26] = biological target: Gal(b1-3)[Neu5Ac(a2-6)]GlcNAc(b1-4)Gal(b1-4)Glc
# In short: as §1
# [27] = biological target: Gal(b1-3)[Neu5Ac(b2-6)]GalNAc
# In short: as §1
# Gal(b1-4)Gal = biological target: Gal(b1-4)Gal
# In short: as §1
# [28] = biological target: Gal(b1-4)GalNAc(a1-3)[Fuc(a1-2)]Gal(b1-4)GlcNAc
# In short: as §1
# [29] = biological target: Gal(b1-4)GalNAc(b1-3)[Fuc(a1-2)]Gal(b1-4)GlcNAc
# In short: as §1
# Gal(b1-4)Glc = biological target: Gal(b1-4)Glc
# In short: as §1
# Gal(b1-4)Glc6S = biological target: Gal(b1-4)Glc6S
# In short: as §1
# Gal(b1-4)GlcNAc = biological target: Gal(b1-4)GlcNAc
# In short: as §1
# [30] = biological target: Gal(b1-4)GlcNAc(a1-6)Gal(b1-4)GlcNAc
# In short: as §1
# Gal(b1-4)GlcNAc(b1-2)Man = biological target: Gal(b1-4)GlcNAc(b1-2)Man
# In short: as §1
# [31] = biological target: Gal(b1-4)GlcNAc(b1-2)Man(a1-3)Man(b1-4)GlcNAc(b1-4)GlcNAc
# In short: as §1
binder,measurement,setting,value
DrGal9 (Danio rerio) (protein) MAFYQQPPYYNPRIPFSGPIQGGLQDGKSIIISGRVLPGANRFHVNLQCGSHSEANVALHFNPRYEDTDYVVNNSYLNRTWGSEERKYESPFAQGQTFTLQILVAQDKYKISTNGRHFMDYKHRIPFTQVDTVAVEGMVEVNSVAFQNPAGFIPPQAGYAPQYAVPPGCGFPAFPSAPNYTIPHKTVMNGGLHPGKNIVINGVVNPNAKSIIFNLCYRSGIAFHYNPRFDENVVVRNTNQMEKWGAEERFGGLPFHKGQPFQVTISCNPQHYNVFVNGKQEHTYKHRYTKLNDIDILEICGDLQLTSVQA,glycan array binding signal (z-score),[1],1.5
same,glycan array binding signal (z-score),[2],0.27
same,glycan array binding signal (z-score),[3],-0.044
same,glycan array binding signal (z-score),[4],1.15
same,glycan array binding signal (z-score),[5],1.37
same,glycan array binding signal (z-score),[6],0.756
same,glycan array binding signal (z-score),[7],-0.053
same,glycan array binding signal (z-score),[8],2.44
same,glycan array binding signal (z-score),[9],2.28
same,glycan array binding signal (z-score),[10],2.38
same,glycan array binding signal (z-score),[11],1.3
same,glycan array binding signal (z-score),[12],-0.051
same,glycan array binding signal (z-score),[13],0.234
same,glycan array binding signal (z-score),[14],-0.193
same,glycan array binding signal (z-score),[15],-0.008
same,glycan array binding signal (z-score),[16],-0.157
same,glycan array binding signal (z-score),[17],0.477
same,glycan array binding signal (z-score),Gal(b1-3)GlcNAc6S,-0.12
same,glycan array binding signal (z-score),[18],-0.388
same,glycan array binding signal (z-score),[19],-0.366
same,glycan array binding signal (z-score),[20],-0.344
same,glycan array binding signal (z-score),[21],-0.392
same,glycan array binding signal (z-score),[22],-0.404
same,glycan array binding signal (z-score),[23],-0.368
same,glycan array binding signal (z-score),[24],-0.236
same,glycan array binding signal (z-score),[25],-0.397
same,glycan array binding signal (z-score),[26],-0.276
same,glycan array binding signal (z-score),[27],-0.396
same,glycan array binding signal (z-score),Gal(b1-4)Gal,-0.413
same,glycan array binding signal (z-score),[28],-0.375
same,glycan array binding signal (z-score),[29],-0.38
same,glycan array binding signal (z-score),Gal(b1-4)Glc,-0.354
same,glycan array binding signal (z-score),Gal(b1-4)Glc6S,0.002
same,glycan array binding signal (z-score),Gal(b1-4)GlcNAc,-0.289
same,glycan array binding signal (z-score),[30],-0.269
same,glycan array binding signal (z-score),Gal(b1-4)GlcNAc(b1-2)Man,-0.367
same,glycan array binding signal (z-score),[31],0.045
